About 60 (0.1%) of roughly 46,000 compounds were called active. Not shown: some 3% with an inconclusive outcome. The call rests on the fitted dose curve; in most records, active means well fitted inhibition curve with a large enough effect; inconclusive means small, poorly fitted or top-dose-only effect; inactive means no such curve, though single readings can be large or run the other way. Some of the results follow. Positions of bridges follow the written chain, without caps; N, C: chain ends. Non-standard residues stand in square brackets, D forms with d. Residues, ends and D or L forms follow the SMILES beside them. ξ: configuration not given here. *: point of attachment. Octanoyl(6-Me) = CCC(C)CCCCC(=O)*; ξThr(3R) = C[C@@H](O)C(N)C(=O)O; dDab = NCC[C@@H](N)C(=O)O; Dab = NCC[C@H](N)C(=O)O
Test: Primary qHTS assay for Inhibitors of ovarian cancer metastasis using an organotypic tumor microenvironment (TME) model. Further: nearly all actives have a fitted effect of over 65% in size.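 On activity change, negative = inhibition: plate controls were DMSO wells for no effect and tomatine positive control wells for full effect.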
Conditions: SKOV3ip1-GFP adhesion/invasion on 3D omental model, fluorescence; series mostly up to 45.8 µM; activity change, negative = inhibition: at the top concentration
Outline: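 Adhesion/invasion was scored as fixed GFP-labeled SKOV3ip1 cell counts (488/509 nm), normalized to DMSO and tomatine controls. Cancer cells in serum-free medium, with four compound doses (0.36-46 umol/L), sat 2 hr at RT then 16 hr at 37 C on a 48 hr fibroblast/mesothelial/ECM culture.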

Activity change, negative = inhibition, inactive:
CC(=O)Nc1cc(C(=O)NCc2ccc(F)cc2)ccc1Sc1ccc(F)cc1 -6.73%
Cc1cc2oc(=O)c(CC(=O)NCCc3ccccc3F)c(C)c2c2occ(C(C)(C)C)c12 1.53%
COc1c(N2C[C@@H]3CCCN[C@H]3C2)c(F)cc2c(=O)c(C(=O)O)cn(C3CC3)c12 -9.1%
COc1ccccc1NC(=O)C1=C(C)Nc2nc(SC)nn2C1c1ccccc1Cl (centres undefined) -6.19%
Cc1cc2n(n1)CCC(=O)N2Cc1ccc(C(=O)Nc2cc(Cl)ccc2C)cc1 11.9%
COc1ccccc1C(=O)Nc1ccc2nc(SCC(=O)N3CCCc4ccccc43)sc2c1 -6.49%
COc1ccccc1C(=O)N/C(=C\c1cn(S(=O)(=O)N(C)C)c2ccccc12)C(=O)NCCCn1ccnc1 11.8%
Cc1cccc(CN2CCC(CNC(=O)Cn3ncc4c([nH]c5ccc(C)cc54)c3=O)CC2)c1 1.75%
CCOC(=O)c1cc(S(=O)(=O)NCc2ccc(Cl)cc2)[nH]n1 27.5%
COc1ccccc1C(=O)Nc1nc2n(n1)C(c1ccc(F)cc1)C=C(c1ccc(Cl)cc1)N2 (centres undefined) -3.51%
CCCN(CCC)C(=O)Cn1c(=O)n(-c2cccc(C)c2)c(=O)c2c1c1cc(OC)ccc1n2C 2.19%
CCCCOc1ccc(C(C)NC(=O)CN2C(=O)CSc3ccc(S(=O)(=O)N4CCOCC4)cc32)cc1 (centres undefined) -20.6%
CSc1ccc(-c2nnn(CC(=O)Nc3sc4c(c3C#N)CCC(C(C)(C)C)C4)n2)cc1 (centres undefined) 1.14%
O=S1(=O)c2ccccc2N(Cc2cccc(F)c2)c2ccccc21 -5.41%
Cc1ccc(-n2ncc3c(N4CCCCCC4)ncnc32)cc1Cl 1.26%
Cc1cccc(NC(=O)c2ccc(-n3c(C)nnc3C)cc2)c1 1.37%
CCC(=O)Nc1ccc(Cl)c(-c2nc3ccccc3[nH]2)c1 0.955%
O=C(CN1CCCN(Cc2cccc(Cl)c2)S1(=O)=O)Nc1ccc2c(c1)OCCO2 -8.84%
COc1cccc2c1C(=O)c1c(O)c3c(c(O)c1C2=O)C[C@@](O)(C(=O)CO)C[C@@H]3O[C@H]1C[C@H](N)[C@@H](O)[C@H](C)O1 -13.6%
CC(C)CC(=O)NCC(c1ccc2c(c1)OCO2)N1CCN(c2ccccc2)CC1 (centres undefined) -1.01%
Cc1c(C(=O)OC2CCCCC2)[nH]c2c1C(=O)CC(c1ccc(F)cc1)C2 (centres undefined) 10.5%
COc1ccc(-c2[nH]nc3nc(-c4cc(Br)ccc4OC)cc(C(=O)O)c23)cc1 11.2%
COc1ccc(CCNC(=O)CCCn2c(=O)c3ccccc3n(Cc3ccccc3)c2=O)cc1OC 18.8%
COc1cccc(CNC(=O)C(=O)NCC(c2cccs2)S(=O)(=O)c2ccccc2)c1 (centres undefined) -35.8%
COc1ccc(S(=O)(=O)N2Cc3ccccc3CC2C(=O)Nc2ccc(C)cc2)cc1OC (centres undefined) 5.86%
CCn1c(COc2ccc(Cl)cc2Cl)nc2ccccc21 2.82%
CCc1ccccc1NC(=O)c1cn(C)c(=O)c2ccccc12 0.168%
COc1c(Cl)cc(Cl)cc1C(=O)Nc1cccc(-c2nc3ccccc3o2)c1C 2.06%
Clc1ccc(CCNc2nc3cc(Cl)c(Cl)cc3n3cnnc23)cc1 -1.44%
Cc1ccc(C)c(NC(c2ccccc2)c2nnc(-c3ccccc3F)o2)c1 (centres undefined) -14.1%
CCOC(=O)CC(NC(=O)Cn1nnc(-c2ccccc2Cl)n1)c1ccc(OC)cc1 (centres undefined) -3.98%
Cc1cccc(N2CCN(C(=O)c3ccc4c(c3)N(Cc3ccccc3)C(=O)c3ccccc3S4(=O)=O)CC2C)c1 (centres undefined) 5.32%
CCC(C)CCCCC(=O)N[C@@H](CCN)C(=O)NC(C(=O)N[C@H](CCN)C(=O)N[C@@H]1CCNC(=O)C([C@@H](C)O)NC(=O)[C@@H](CCN)NC(=O)[C@@H](CCN)NC(=O)[C@@H](CC(C)C)NC(=O)[C@H](Cc2ccccc2)NC(=O)[C@H](CCN)NC1=O)[C@@H](C)O (stereo partly drawn) ({Octanoyl(6-Me)}-[Dab][ξThr(3R)][dDab][dDab][Dab]F[dL][dDab][dDab][ξThr(3R)]; lactam 4-C) 2.01%
Cc1cccc(CCNC(=O)c2cc(S(=O)(=O)N3CCCCC3)c[nH]2)c1 -1.35%
COc1ccccc1CNC(=O)CSc1ncc(S(=O)(=O)c2ccc(C)c(Cl)c2)c(=O)[nH]1 7.13%
COc1ccc(-c2nnc(C3CCN(S(=O)(=O)c4cccc(Cl)c4)CC3)o2)cc1 4%
COc1ccc(-c2nnc(SCC(=O)N3CCC(C)CC3)o2)cc1 -0.0234%
COCCCNC(=O)C1CCN(Cc2cc3ccccc3n2Cc2cccc(C)c2)CC1 -0.0371%
CNC(=O)C1CCC(Cn2c(=O)c3sccc3n(CC(=O)N3CCCC(C)C3)c2=O)CC1 (centres undefined) -2.19%
COc1ccc(-c2c(C)c3ccc(O)c(CN4CCOCC4)c3oc2=O)cc1OC 6.73%
CC1CCN(C(=O)Cn2c(-c3cccs3)cc3cc(Cl)ccc32)CC1 -9.32%
COc1cccc(NC(=O)Nc2ccc3c(c2)N(C)C(=O)c2ccccc2S3)c1 0.763%
CCCCOC(=O)c1c(C)oc2c1cc(NS(=O)(=O)c1cc(OC)ccc1OC)c1ccccc12 -9.28%
CCOc1ccc(-c2nnc(SCC(=O)Nc3cccc(C#N)c3)o2)cc1 -8.69%
Cc1cccc(NC(=O)c2sc3ncnc(N(C)C4CCCCC4)c3c2C)c1C 0.396%
O=C(CN1C(=O)c2ccccc2Sc2ccc(C(=O)N3CCOCC3)cc21)Nc1ccc(Cl)cc1F 3.48%
CCCN1Cc2cccc(C(=O)Nc3cc(Cl)ccc3C)c2C1=O 2.11%
O=C(CSc1nccn1Cc1ccc(F)cc1)NCc1ccco1 -1.33%
Cc1ccc(C)c(NC(=O)C(CC(C)C)N2Cc3ccccc3C2=O)c1 (centres undefined) 12.1%
Cc1cc(C)c2c(c1)c(C)cc1nnc(SCC(=O)c3ccccc3)n12 -4.57%
Cc1cccc(C)c1NC(=O)c1cc(S(=O)(=O)N2CCc3ccccc3C2)ccc1F 0.637%
Cc1ccc2c(c1)N(C(=O)CCC(=O)NCc1cccc(F)c1)CC(C)O2 (centres undefined) 0.162%
CCC(=O)N1CCc2cc(S(=O)(=O)CCC(=O)N3CCN(c4cccc(C)c4C)CC3)ccc21 -10.3%
COc1cccc(NC(=O)c2c(C)oc3nc(C)nc(N4CCCC4)c23)c1 13.8%
CCN1CCN(Cc2c(O)ccc3oc(C)c(C(=O)Nc4cccc(C(F)(F)F)c4)c23)CC1 -12.2%
CCn1c(=O)c2sccc2n2c(CCCC(=O)N3CCN(c4ccc(F)cc4)CC3)nnc12 10.9%
CCCCOc1ccc(C(=O)N(Cc2ccccc2)C2CCS(=O)(=O)C2)cc1 (centres undefined) 8.81%
COC(=O)C[C@](O)(CCCC(C)(C)O)C(=O)O[C@@H]1C(OC)=C[C@]23CCCN2CCc2cc4c(cc2[C@H]13)OCO4 -3.37%
CC(=O)c1cccc(NC(=O)c2ccc3nc(Cc4ccccc4)oc3c2)c1 3.48%
O=C(c1ccc(Cl)cc1)n1nc(-c2cccnc2)nc1NCc1ccc(F)cc1 1.24%
CCOC(=O)c1cccc(NC(=O)CCS(=O)(=O)c2ccc3c(c2)CCN3C(=O)CC)c1 8.88%
COc1cccc2cc(-c3nc(-c4ccc(Cl)cc4)cs3)c(=O)oc12 1.77%
CCOc1ccc(-c2cc3c(=O)n(CC(=O)NCc4ccc(F)cc4)ccn3n2)cc1 -7.63%
Cc1csc2nc(COC(=O)CNC(=O)c3ccccc3)cc(=O)n12 -3.22%
COc1ccc(N2CCN(Cc3nc4c(c(=O)[nH]c(=O)n4C)n3Cc3ccccc3C)CC2)cc1 -3.96%
O=C(CSc1ncccc1C(=O)Oc1ccccc1Cl)Nc1ccc(C(F)(F)F)cc1Cl -13.3%
COC(=O)c1ccc(NC(=O)C(=O)NCCc2csc(-c3ccc(F)cc3)n2)cc1 -0.654%
Cc1ccc(O)c(NC(=O)C2=CC(c3ccco3)=NS(=O)(=O)N2C)c1 7.26%
COc1ccc(NC(=O)C2CCCN(S(=O)(=O)c3ccc(F)cc3)C2)cc1 (centres undefined) 8.57%
Cc1ccc(CN(C(=O)COc2ccccc2[N+](=O)[O-])c2ccccn2)o1 5.41%
Cc1cc(F)ccc1NC(=O)Cn1cc(S(=O)(=O)NC(C)C)c(S(=O)(=O)NC(C)C)c1 4.39%
COc1ccc(NC(=O)Cn2c(=O)oc3cc(S(=O)(=O)N4CCCCCC4)ccc32)cc1OC 10.1%
Cc1ccc2onc(CC(=O)N3CCN(c4cccc(Cl)c4)CC3)c2c1 -14%

outcome, inactive:
CCOC(=O)c1c(NC(=O)c2ccc(OCC)c(Br)c2)sc2c1CCCC2
COc1ccc(OC)c(NC(=O)C2CCCN(S(=O)(=O)c3ccc4c(c3)CCCC(=O)N4)C2)c1 (centres undefined)
Cc1ccccc1CSc1ncc(Cl)c(C(=O)Nc2nc3ccc(F)cc3s2)n1
COc1cccc(-c2cc(C(F)(F)F)nc(NCCc3ccc(OC)c(OC)c3)n2)c1
COc1ccc(NC(=O)c2ccco2)cc1NC(=O)c1cc(Cl)ccc1OC
COc1ccccc1CNC(=O)CCc1c(C)nc2cc(-c3ccc(Cl)cc3)nn2c1C
O=S(=O)(c1ccc(F)cc1)N1CCC(Oc2cccc(C(F)(F)F)c2)CC1
COc1ccc(CCN2C(=O)N(c3cccc(C)c3)C(=O)C2CC(=O)Nc2ccccc2)cc1OC (centres undefined)
Cc1c2cnn(-c3ccccc3)c(=O)c2c(C)n1C(C)C(=O)Nc1ccccc1C(F)(F)F (centres undefined)
CC(C)(C)c1ccc(C(=O)Nc2ccc(-c3nc4ccccc4o3)c(O)c2)cc1
COc1ccc(CC(=O)Nc2nc3c(s2)CCCC3)cc1
CCN(CC)c1ccc2cc(-c3nc4sc5c(c4c(=O)[nH]3)CCC(C(C)(C)C)C5)c(=O)oc2c1 (centres undefined)
FC(F)(F)c1cc(-c2ccccc2)nc2cc(-c3ccccc3)nn12
CCc1nnc(NC(=O)CSc2nc3c([nH]c4ccccc43)c(=O)n2-c2ccc(Cl)cc2)s1
CCN(CC)S(=O)(=O)c1ccc2c(c1)N(CC(=O)Nc1cccc(C#N)c1)C(=O)CO2
O=c1oc2ccccc2cc1-c1cn2cc(Cc3cc(Cl)ccc3Cl)sc2n1

Reference: PubChem BioAssay AID1963576 (National Center for Advancing Translational Sciences (NCATS), 2024)
